# In PMC12136788:
# Some of the results follow.
# T1: UNK ZnF1-3 (human, UniProt Q9C0B0 31-174)
# T1 sequence: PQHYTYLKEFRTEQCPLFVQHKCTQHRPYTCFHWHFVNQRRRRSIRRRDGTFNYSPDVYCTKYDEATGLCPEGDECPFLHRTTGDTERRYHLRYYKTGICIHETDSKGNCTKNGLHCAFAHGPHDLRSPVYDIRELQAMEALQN
# B1: chr3:10015032:10015033:+_ENSMUSG00000027533_ENSMUST00000029046|mus_mus|mus_mus_mus_hu_True|28_88 (ssRNA)
# RNA: GGGAGUUCUACAGUCCGACGAUCGUUUUUACCAUCACAAGUGAUGAUACAGUCUGGCUUGGCCAUUGCGCCCAUUUUUCGCAAAGCUAUUCCCACUCCUAGCUCCUUCAUGUACUCAUCAAAGCCUUUGCUGUCCACCAGGCGCAACAGAGGAUUGAGCAUCA
# B2: 58499947_58500067_473_3pUTR_ENSMUSG00000038668_ENSMUST00000055018|mouse|control|control (ssRNA)
# RNA: GGGAGUUCUACAGUCCGACGAUCAACAUGAUGAACACGCAAACAGUGAUGCCCAGUCCCAUCACCAGCUUGCUCACUGUGUUCCAUUCUGUGGCUAGAUAUUUCCCACUCCGGUUAUAAAAGAAGGCGAUAGACUCAUUGUAGCAACAGAGGAUUGAGCAUCA
# B3: chrX:71549400:71549401:+_ENSMUSG00000019087_ENSMUST00000019231|mus_hu|mus_mus_mus_hu_False|48_48 (ssRNA)
# RNA: GGGAGUUCUACAGUCCGACGAUCGCAGUAGGAAGAGGGAAGCUCUUCAGUCCAGUGCGCUGCAGGGUGGGAAAGCAACAACACGGAACCAAUACUCCCCUCAACCCCCCCACUGGCACAGGGUCACACAAUCUGGGUCAAAGACAACAGAGGAUUGAGCAUCA
# B4: chr9:79603372:79603373:-_ENSMUSG00000032330_ENSMUST00000034881|mus_mus|motif|central (ssRNA)
# RNA: GGGAGUUCUACAGUCCGACGAUCCACGUGAAGACUGGGAUGACGACAUUAGUUCUGCUUCUUGGGAAAUGCAGCCAUAGCGGACAGAUAGAUGGCAUAGGCUGUGCCACCAAGCGUCAGAGCCAUUGUGGCUCUGUAGAGGAGCAACAGAGGAUUGAGCAUCA
# B5: chr12:32660859:32660860:-_ENSMUSG00000002997_ENSMUST00000036497|mus_hu|motif|central (ssRNA)
# RNA: GGGAGUUCUACAGUCCGACGAUCGUCACCUUGAUCAAUUACAUGCUCCCCAUCUUUGACCAAUUUUUCAAACAUGGCAUCGGAUACUUGAGACAUCUGCUCCGGAUCCAGAUUCUUAAACAGCAGGAUGUCUUUGCAAGCCUCCAACAGAGGAUUGAGCAUCA
# B6: chr9:35286173:35286174:+_ENSMUSG00000038119_ENSMUST00000042842|mus_hu|FALSE|FALSE (ssRNA)
# RNA: GGGAGUUCUACAGUCCGACGAUCAGUGUUAUUGUUACUUGAUGGAAUGUACGUCCACUUUAGCAUGAUCUGAGUAUCGCUGACAGCCUCUGUGUAUGCAAUGUGAGGUCCAGUUAUUGGACGGCUGGAAAAGCGAUUGGGGAACAACAGAGGAUUGAGCAUCA
# B7: chr12:39756943:39756944:-_ENSG00000139116_ENST00000544797|hu_mus|hu_hu_hu_mus_False|1_48 (ssRNA)
# RNA: GGGAGUUCUACAGUCCGACGAUCGGUUUGGCUGUUACCCCCAAGGGAAUCCUGCAAGAGUCUUGUCAGCUUAGAGUCUCUGUAAGGGACAUGUGUGGCUCUCUUGCUCUUGUCCCCCAAGGCGCUGAUUACAUUCCCAAGUGCCAACAGAGGAUUGAGCAUCA
# B8: chr7:65705475:65705476:+_ENSG00000169902_ENST00000304842|hu_hu|hu_hu_hu_mus_True|38_68 (ssRNA)
# RNA: GGGAGUUCUACAGUCCGACGAUCUCUAUUCGGUGAUGGCACUCCAUGGCAUGCUGGCCCAGGUAAAACACAGUCACAGAACUAAUCACCAGACACGCCAAUAGUAAGUUCUGCUUCAGCUUCCCAACCAUCUUGAUGUGGUUACAACAGAGGAUUGAGCAUCA
# B9: chr4:57314706:57314707:+_ENSG00000128050_ENST00000264221|hu_mus|hu_hu_hu_mus_True|18_88 (ssRNA)
# RNA: GGGAGUUCUACAGUCCGACGAUCCAGAAUUUCAAAAAUAGCUUGUGUAGCAUGACUCAUGAUGUCCACUUCAGUCUGCCCUAUAACAAGGCCAGCAAAACAGAAUUUUGCAGCAAUCAGCUGUUCCUCAGACCACUGUGGAUCCAACAGAGGAUUGAGCAUCA
# B10: chr2:202488911:202488912:-_ENSG00000155755_ENST00000286196|hu_mus|hu_hu_hu_mus_False|1_48 (ssRNA)
# RNA: GGGAGUUCUACAGUCCGACGAUCAUUGAAACAUUUUUCAUAAUCUCCAGUAGCAUUUCAGCAUUAUGUAACAAAAGCUCAAUUGUAAAUACACAUGUCUUAUAAAAAUACACUUAAAAACACGAGUGGGGAGCGCACAAAUACCAACAGAGGAUUGAGCAUCA
# B11: chr6:114281168:114281169:-_ENSG00000196591_ENST00000368632|hu_hu|hu_hu_hu_mus_True|38_38 (ssRNA)
# RNA: GGGAGUUCUACAGUCCGACGAUCUUCCAUUUUUCGGUAUAAACCAUAAUUUAGCAGCAAGUUAUGAGUCAUCCGGAUUCUAUGAGGCUUCAUGGGAUGACCCUGUCCAUAAUAAUAAUUGCCAAUAUCACCAUCAUAGUAGUACAACAGAGGAUUGAGCAUCA
# B12: chr19:16212804:16212805:+_ENSG00000167460_ENST00000300933|hu_mus|hu_hu_hu_mus_False|1_78 (ssRNA)
# RNA: GGGAGUUCUACAGUCCGACGAUCAACAAUUCUGGAGUGAAGGAAAGAUGUAACAUGCAAUUAAUUAAAAGCUCAGUCAGAAGGCACAUGGGCAACAAUGAUCACCCCAGCAUUCUCGCUUGGAAUGCUUAAAGACAGAUGUUUCAACAGAGGAUUGAGCAUCA
# B13: chr8:74858975:74858976:-_ENSG00000154582_ENST00000284811|hu_mus|hu_hu_hu_mus_True|8_88 (ssRNA)
# RNA: GGGAGUUCUACAGUCCGACGAUCGACCUUGUAGGUAAAAUACAUGCAUACUUUCGAUAGCACAUGUGAGGGGAUCUCUCUAAAAUUGACCUCGUUGGUUUCAUUCUCAGCAAACUGACCUGGACCACUCAACAUGGCCUUUAUCAACAGAGGAUUGAGCAUCA
# B14: chr14:78183846:78183847:+_ENSG00000119705_ENST00000557342|hu_hu|hu_hu_hu_mus_False|58_108 (ssRNA)
# RNA: GGGAGUUCUACAGUCCGACGAUCUCUGUCUCAAAAAUCUUCAUCAGAUGUUUGAGCUCCGUGCAAAGCCUUUGCUCUUCUAGUGUGAACGUGGAUCUAUGGGAGGGAAAGCACUGUCAGAAAAGGUAAUUUUUUUUUUAAAGACAACAGAGGAUUGAGCAUCA
# Biological target: T1, UNK ZnF1-3
# Experiment: nsRBNS (natural sequence RNA bind-n-seq); RBNS binding buffer (assumed for nsRBNS): 25 mM Tris pH 7.5, 150 mM KCl, 3 mM MgCl2, 0.01% Triton X-100, 500 ug/ml BSA, 20 U/ml SUPERase-In, 4 C; UNK is unkempt and MSI1 is Musashi-1; names of the RNAs are library labels; protein concentration not given here; high values mean tight binding
row,Binder,binding signal [enrichment R]
1,B1,0.689
2,B2,1
3,B3,1.44
4,B4,1.26
5,B5,1.19
6,B6,1.04
7,B7,0.544
8,B8,0.67
9,B9,1.07
10,B10,1.45
11,B11,0.862
12,B12,1.5
13,B13,0.617
14,B14,1.5
